In all, about 420,000 compounds went through this assay and about 50,000 (12%) were called active. The shares of active, inactive and inconclusive entries below differ from those in the screen. Calls come from the whole dose curve; as a rule, active = well fitted inhibition curve with a large enough effect; inconclusive = small, poorly fitted or top-dose-only effect; inactive = flat fitted curve, though single readings scatter. Potencies of inconclusive entries are left out as doubtful fits.
Assay: qHTS for Inhibitors of human tyrosyl-DNA phosphodiesterase 1 (TDP1): qHTS in cells in presence of CPT; note: nearly all actives have a fitted effect of over 55% in size
Details: chicken DT40 Tdp1-/-;hTDP1 cells + 20 nM CPT, ATP luminescence, 48 h; activity change, negative = growth inhibition: at 46.2 µM (top of the series) unless noted
Summary of the method: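 Cell growth measured by CellTiter-Glo luminescence after a minimum 48 h, 37 C compound exposure with 20 nM CPT in Tdp1-knockout DT40 cells stably expressing hTDP1, seeded 400/well; qHTS titration format.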
% is set by controls: 0 for no effect and ±100 for the full control effect; potency is the fitted concentration of half-maximal effect; tags give direction and shape of the fitted curve.

| Structure (SMILES) | Potency | activity change, negative = growth inhibition |
| --- | --- | --- |
| c1ccc(-c2c3ccccc3nc3[nH]c4ccccc4c23)cc1 | inconclusive [inhibitor, single point] | – |
| Cc1ccccc1Oc1nc2c(c(=O)n(C)c(=O)n2C)n1Cc1ccc(Br)cc1 | – | inactive: -7.44% |
| COc1ccc(S(=O)(=O)N2CCCC(C(=O)Nc3ccc(NC(=O)c4ccccn4)cc3)C2)cc1 (configuration not stated) | active: 7.31 µM | – |
| OC(c1cccc(Cl)c1)c1ncc(-c2ccccc2Cl)[nH]1 (configuration not stated) | inconclusive [inhibitor, single point] | – |
| CCOc1cccc(NC(=O)C2CCCN(S(=O)(=O)c3ccc(OC)cc3)C2)c1 (configuration not stated) | inconclusive [inhibitor, single point] | – |
| Cn1c(N2CCN(S(=O)(=O)c3ccc(Cl)cc3)CC2)nc2ccccc21 | inconclusive [inhibitor, single point] | – |
| Cn1c(SCC(=O)Nc2nc3c(s2)CCCC3)nnc1-c1ccccc1 | inconclusive [inhibitor, partial curve] | – |
| COc1ccc(NC(=O)Nc2ccc3c(c2)C(=O)N([C@H](C)CO)C[C@H](C)[C@@H](CN(C)S(=O)(=O)c2ccccc2)O3)cc1 | inconclusive [inhibitor, single point] | – |
| CCOc1ccc(S(=O)(=O)N(CC(=O)NN=C2CCN(C)CC2)c2ccc(C)cc2)cc1 | – | inactive: -12.5% |
| C=CCC(C#Cc1ccccc1)N(C)C (configuration not stated) | – | inactive: -0.782% |
| CCOc1ncccc1C(=O)NCc1ccc(OC)c(OC)c1 | – | inactive: -15.7% |
| CC1CCCCN1C(=S)NC(=O)c1cc(Br)ccc1Cl (configuration not stated) | inconclusive [inhibitor, single point] | – |
| Cc1cc(C)c(S(=O)(=O)NCCCn2ccnc2)c(C)c1 | inconclusive [inhibitor, single point] | – |
| Cc1ccc(S(=O)Cc2nc(-c3ccc(C(=O)NC(C)c4ccccc4)cc3)oc2C)cc1 (configuration not stated) | inconclusive [inhibitor, single point] | – |
| CCCC(=O)Nc1ccccc1-c1nnn(CC(=O)Nc2ccc(OCC)cc2)n1 | inconclusive [inhibitor, partial curve] | – |
| CCCCCCn1c(=O)[nH]c2nc3cc(N)ccc3nc2c1=O | inconclusive [inhibitor, single point] | – |
| COc1cc(F)ccc1-c1cc(C(=O)NCc2ccc(F)cc2)[nH]n1 | inconclusive [inhibitor, single point] | – |
| O=C1CCCC(O)=C1N=Nc1c(Cl)cc(Cl)cc1Cl | inconclusive [inhibitor, single point] | – |
| CCOC(=O)C(=Cc1c[nH]c2ccc(S(=O)(=O)N(C)C)cc12)C(=O)OCC | inconclusive [inhibitor, single point] | – |
| COC(=O)[C@]12CCCCC=C1N(CCC1=CCCCC1)C(=O)[C@H](CC(=O)NCc1cccc(C(F)(F)F)c1)C2 | inconclusive [inhibitor, single point] | – |
| Cn1c(=O)c2sccc2n2c(CCC(=O)NCc3ccccc3)nnc12 | – | inactive: 3.63% |

| Structure (SMILES) | Potency | activity change, negative = growth inhibition |
| --- | --- | --- |
| COC(=O)c1cc(CSc2nnc(-c3ccccc3)c(-c3ccccc3)n2)oc1C | active: 23.1 µM | – |
| Cc1cc(C)c(NC(=O)CNC(=O)c2ccc3c(=O)n4c(nc3c2)CCC4)c(C)c1 | – | inactive: 1.06% |
| COc1ccc(NC(=O)Nc2nc(C(N)Cc3ccc(C(F)(F)F)cc3)cs2)cc1 (configuration not stated) | inconclusive [inhibitor, single point] | – |
| CCOC(=O)Cc1csc(SCc2nc3ccccc3c(=O)[nH]2)n1 | inconclusive [inhibitor, single point] | – |
| Cc1cccc(-c2nnc(SCC#N)n2-c2cccc(Cl)c2)c1 | inconclusive [inhibitor, partial curve] | – |
| COc1ccc(Cl)cc1S(=O)(=O)Nc1cccc(-c2ccc(N3CCOCC3)nn2)c1 | – | inconclusive: -33.2% [inhibitor] |
| C[C@H](NC(=O)c1nc[nH]c1C(=O)NCCCCCN)C(=O)OCc1ccccc1 | – | inactive: -12.2% |
| OCc1ccccc1O[C@H]1OC(CO)C(O)C(O)C1O (some centres not stated) | – | inactive: -10.8% |
| Cc1ccc(NC(=O)COc2ccc(/C=C3/NC(=O)NC3=O)cc2)cc1 | – | inactive: -9.1% |
| COc1cccc(CN(C(=O)c2cc3ccccc3oc2=O)C2CC2)c1 | – | inconclusive: -38.2% [inhibitor] |
| COC(=O)c1ccc(C(=O)OC)c(NC(=O)c2c(-c3ccccc3)c(-c3ccccc3)nn(C)c2=O)c1 | inconclusive [inhibitor, single point] | – |
| Cc1ccc2c(c1)nc(SCC(O)c1ccc(Br)cc1)n2C (configuration not stated) | inconclusive [inhibitor, single point] | – |
| O=C(COC(=O)c1cccc(NS(=O)(=O)c2ccc(F)c(F)c2)c1)NC(=O)NC1CCCCC1 | inconclusive [inhibitor, partial curve, poor fit] | – |
| COc1ccc(/C=C2\CCCc3c2nc2ccc(C)cc2c3C(=O)O)cc1O | – | inactive: -3.06% |
| CCOC(=O)c1c(C)nc(C)c(C(=O)OCC)c1-c1ccc(OC)cc1 | inconclusive [inhibitor, partial curve, poor fit] | – |
| O=C(NCc1ccc2c(c1)OCO2)c1nn(-c2ccccc2)c(=O)c2ccccc12 | inconclusive [inhibitor, partial curve] | – |
| CCOC(=O)C1=C(C)N(c2ccccc2)C(=O)/C1=C\c1ccco1 | inconclusive [inhibitor, single point] | – |
| COc1cccc(CCNc2ncnc3c2nnn3C)c1 | inconclusive [inhibitor, single point] | – |
| CC(C)CC(=O)NC(=S)N(Cc1ccccc1)Cc1ccccc1 | inconclusive [inhibitor, single point] | – |
| COc1ccc2c(c1)OC[C@H]1[C@H]2N2C(=O)c3cc(OC)ccc3NC(=O)[C@@]2(C)[C@H]1c1ccccc1 | inconclusive [inhibitor, single point] | – |
| COc1ccc(S(=O)(=O)N2CCC(C)CC2)cc1N(C)S(=O)(=O)c1ccccc1 | inconclusive [inhibitor, single point] | – |
